# Measured values reported in PubChem BioAssay AID651820 (National Center for Advancing Translational Sciences (NCATS), 2012).
# Values joined by “and” are separate entries in the source; they are usually repeats but may differ in a detail not shown here. Equal values may be shown once. Out of some 340,000 compounds screened, about 12,000 (3.5%) were called active. Inconclusive results, whose numbers are uncertain, are shown with a selection of clear calls. The call rests on the fitted dose curve; in most records, active means well fitted inhibition curve with a large enough effect; inconclusive means small, poorly fitted or top-dose-only effect, or another doubt; inactive means no such curve, though single readings can be large or run the other way. Potencies of inconclusive entries are doubtful fits and often do not repeat.
# Experiment: qHTS Assay for Inhibitors of Hepatitis C Virus (HCV)
# Details: Huh7.5.1 HCVcc-Cre (HCVcc is cell-culture hepatitis C virus) infection, luciferase reporter, 44 h; series mostly up to 41.8 µM
# Method in brief: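 Reporter virus HCVcc-Cre (~0.5 moi) infects cells exposed to compound; seeding density 1,000 cells/well with 4 h settling beforehand. Luminescence, 15 sec read, taken 44 h post-infection following a 15 min RT substrate incubation.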
# Potency means the concentration at half of the fitted maximal effect; tags describe the fitted curve by direction and shape.
row,SMILES,Potency
1,O=C1OC(Nc2nc3ccccc3s2)c2ccccc21 (stereo not drawn),inactive
2,CCc1nnc(NC(=O)c2cccc(S(=O)(=O)N3CCc4ccccc43)c2)s1,inactive
3,CCCCCCC[C@@H](C/C=C/CCC(=O)N(C)C/C(=C/Cl)C/C(=C\C(=O)N1CC(OC)=CC1=O)OC)OC,"inconclusive: 3.16 µM [inhibitor, single point]"
4,CC(=O)C1=NOC2C(=O)N(c3ccc(Cl)cc3)C(=O)C12 (stereo not drawn),inactive
5,CC(C)N(Cc1nc(-c2ccccc2)no1)C(=O)c1ccc([N+](=O)[O-])cc1,active: 22.4 µM
6,O=C(Nc1ccccc1)N1CCN(c2cccc(C(F)(F)F)c2)CC1,"inconclusive: 31.6 µM [inhibitor, single point]"
7,N#CCC(=O)N/N=C\c1ccc(OC/C=C/c2ccccc2)cc1,inactive
8,O=C(O)CC[C@@H](C(=O)O)N1C(=O)c2ccccc2C1=O,"inconclusive: 5.01 µM [inhibitor, single point]"
9,Cn1nc([N+](=O)[O-])nc1Oc1ccc(C(C)(C)C)cc1,"inconclusive: 0.501 µM [inhibitor, full curve, poor fit]"
10,CCNC(=O)COc1cccc(C(=O)NCc2ccccc2)c1,inactive
11,O=C(NCc1ccco1)c1ccccc1O,inactive
12,COc1ccccc1/C=C(/C(=O)OCC(=O)Nc1ccc(N(C)C)cc1)c1ccccc1,"inconclusive: 20 µM [inhibitor, partial curve]"
13,O=C(Nc1nc2c(cc3c4c(cccc42)CC3)s1)c1ccccc1Cl,active: 6.31 µM
14,COc1cc(CNc2nnnn2C)ccc1OCc1ccc(F)cc1Cl,inactive
15,S=c1[nH]nc(COc2ccccc2)n1/N=C/c1ccc(Br)s1,inactive
16,CCCn1c(N)c(C(=O)CSc2nc3ccccc3s2)c(=O)[nH]c1=O,"inconclusive: 31.6 µM [inhibitor, single point]"
17,COc1ccc(-c2c3c(=O)n(C)c(=O)n(C)c3cn2-c2ccccc2O)cc1,"inconclusive: 31.6 µM [inhibitor, single point]"
18,CCOc1ccc2ccccc2c1/C=N/NC(=O)c1cc(C)[nH]n1,inactive
19,Cc1nc2ccccc2n1CCc1nc2c3ccccc3nc(SCC(=O)NCc3ccco3)n2n1,"inconclusive: 12.6 µM [inhibitor, single point]"
20,Cc1nc(N2CCN(S(=O)(=O)c3cccc4nonc34)CC2)c2c3c(sc2n1)CCCC3,"inconclusive: 7.94 µM [inhibitor, partial curve]"
21,CCn1c(O)c(N=NC(=O)c2cccnc2)c2cc(Br)ccc21,"inconclusive: 1.78 µM [inhibitor, partial curve, poor fit]"
22,COC(=O)c1ccccc1NC(=O)c1cccc(NC(=O)CSCc2ccccc2)c1C,"inconclusive: 8.91 µM [inhibitor, partial curve]"
23,COc1cc(NC(=O)c2ccc(COCC(F)(F)F)o2)cc(OC)c1OC,"inconclusive: 1.78 µM [inhibitor, full curve]"
24,Cc1ccc(C(=O)NCc2ccco2)cc1S(=O)(=O)N1CCCC1,inactive
25,O=C(COc1ccccc1Br)N1CCNC1=O,inactive

row,SMILES,Potency
1,Cc1ccsc1/C=C(\C#N)C(=O)NCc1cccnc1,inactive
2,CCCCN1c2cc(C)c(O)cc2C(C(=O)OCC)C1C (stereo not drawn),"inconclusive: 6.31 µM [inhibitor, partial curve]"
3,COc1nnc(-c2ccc(N3CCOCC3)c(NC(=O)c3ccc(C)cc3)c2)c2ccccc12,"inconclusive: 12.6 µM [inhibitor, partial curve]"
4,FC(F)(F)c1nc(NCc2cccnc2)c2ccccc2n1,inactive
5,COc1ccc(Cl)cc1NC(=O)CN(C(=O)c1ccco1)C1CCCCC1,"inconclusive: 3.98 µM [inhibitor, full curve, poor fit]"
6,Cc1c(Cl)c([N+](=O)[O-])nn1Cc1ccc(C(=O)N/N=C\c2cccc(Br)c2)o1,"inconclusive: 6.31 µM [inhibitor, partial curve]"
7,COC(=O)Cc1c(O)ccn(Cc2ccc3c(c2)OCO3)c1=O,inactive
8,CCOC(=O)c1c(NC(C)=O)sc2c1CCC(C=O)=C2Sc1ccccc1,active: 2.82 µM
9,Cc1cccc(C=Nc2ccccc2C(N)=O)c1,"inconclusive: 5.01 µM [inhibitor, single point]"
10,Cc1c(C(=O)N2c3ccccc3Sc3ccccc32)cccc1[N+](=O)[O-],"inconclusive: 31.6 µM [inhibitor, single point]"
11,COc1ccccc1C(=O)NC1CC(C)(C)NC(C)(C)C1,inactive
12,Cc1ccc(NS(=O)(=O)c2ccc(C)c(NC(=O)COc3ccc4ccccc4c3)c2)c(C)c1,"inconclusive: 2.51 µM [inhibitor, full curve]"
13,C=C(C)COc1ccc(-c2n[nH]c(C)c2-c2ccc(Br)cc2)c(O)c1,"inconclusive: 31.6 µM [inhibitor, single point]"
14,N#Cc1c(N)oc(-c2ccco2)c1-c1ccco1,"inconclusive: 14.1 µM [inhibitor, single point]"
15,COc1ccc(/C=N/OCC(=O)N=Nc2c(O)[nH]c3ccc(Br)cc23)cc1,"inconclusive: 31.6 µM [inhibitor, single point]"
16,CCOC(=O)C1(Cc2ccccc2C)CCCN(C(=O)CSC)C1 (stereo not drawn),inactive
17,O=C(CN1CCCC1)N1c2ccccc2Sc2ccccc21,"inconclusive: 31.6 µM [inhibitor, single point]"
18,C=CCOC(=O)C(C#N)c1nc2ccccc2nc1N1CCN(c2ccccc2OC)CC1 (stereo not drawn),inactive
19,COc1ccc(Nc2nnc(SCC(=O)N3CCCC3)s2)cc1,inactive
20,Cc1ccc(C)c(N2CCN(C3CCCCC3NS(=O)(=O)c3ccccc3)CC2)c1 (stereo not drawn),active: 11.2 µM
21,Cc1cc(C)c(C#N)c(Oc2ccc(O)cc2)n1,"inconclusive: 31.6 µM [inhibitor, single point]"
22,CC(=O)Nc1ccc(S(=O)(=O)Nc2ccc(Nc3ccccc3)cc2)cc1,"inconclusive: 22.4 µM [inhibitor, single point]"
23,CN1CCN(S(=O)(=O)c2ccc([N+](=O)[O-])cc2)CC1,inactive
24,CN(CC(=O)NCCCc1ccccc1)Cc1ccc(Br)cc1,inactive
25,COc1ccc(-n2nnnc2SCC(=O)c2ccc(O)c(O)c2)cc1,"inconclusive: 6.31 µM [inhibitor, partial curve]"

row,SMILES,Potency
1,COc1ccc(-c2csc(NC(=O)CSc3nnnn3C)n2)c(OC)c1,"inconclusive: 11.2 µM [inhibitor, single point]"
2,COc1ccc(NC(=O)C2CCN(c3nc(-c4ccc(OC)cc4)no3)CC2)cc1,"inconclusive: 12.6 µM [inhibitor, partial curve]"
3,CCn1c(SCC(=O)Nc2nccs2)nnc1-c1ccc(S(=O)(=O)N2CCCCC2)cc1,"inactive and inconclusive: 31.6 µM [inhibitor, single point]"
4,Cc1ccc(NC(=O)CNC(=O)c2cccc(C)c2)nc1,"inconclusive: 10 µM [inhibitor, partial curve]"
5,CCOC(=O)CCc1c(C)c2ccc(OC3CCCCC3=O)c(C)c2oc1=O (stereo not drawn),"inconclusive: 10 µM [inhibitor, single point]"
6,CSc1ncccc1C(=O)NCc1ccc(C)cc1,inactive
7,NNc1nnc(-c2ccccc2)c(-c2ccccc2)n1,"inconclusive: 31.6 µM [inhibitor, single point]"
8,COc1cccc(NC(=O)c2nn(C)c(C(=O)Nc3cccc(OC)c3)c2[N+](=O)[O-])c1,"inconclusive: 31.6 µM [inhibitor, single point]"
9,CCCCC(=O)/C=C/n1c(=S)oc2ccccc21,"inconclusive: 31.6 µM [inhibitor, single point]"
10,CC1CCN(CCCn2c(=S)[nH]c3c(sc4ccccc43)c2=O)CC1,inactive
11,CCCCn1c(SCC(=O)N(C)C2CCS(=O)(=O)C2)nc2cc(S(N)(=O)=O)ccc21 (stereo not drawn),inactive
12,CN(c1ccccc1)S(=O)(=O)c1cccc(NC(=O)CN2C(=O)NC3(CCCCC3)C2=O)c1,active: 3.16 µM
13,Cc1nn(C(C)C(=O)NCCCN(Cc2ccccc2)C(C)C)c(=O)c2c1sc1ccccc12 (stereo not drawn),"inconclusive: 31.6 µM [inhibitor, single point]"
14,Cc1nn(S(=O)(=O)c2cccc([N+](=O)[O-])c2)c(C)c1Br,"inconclusive: 12.6 µM [inhibitor, single point]"
15,COc1ccc(NC(=O)c2cc(F)cc(F)c2)cc1S(=O)(=O)N1CCCCC1,active: 10 µM
16,CCOc1ccccc1Nc1cc2n(c(=O)n1)CCc1cc(OC)c(OC)cc1-2,inactive
17,CCC1CCCCN1CCCNC(=O)c1cc2c(Cl)nc3ccccc3c2s1 (stereo not drawn),active: 8.91 µM
18,COC(=O)c1c(NC(=O)c2ccc(S(=O)(=O)N3CCOCC3)cc2)sc2c1CCN(C(C)C)C2,"inconclusive: 25.1 µM [inhibitor, single point]"
19,O=C(NCCCO)c1cc2c([nH]c3ccccc32)c(-c2ccc(F)cc2)n1,active: 14.1 µM
20,Cn1c(O)c(N=NC(=O)CNC(=O)c2ccccc2)c2ccccc21,"inconclusive: 11.2 µM [inhibitor, single point]"
21,CCOC(=O)C[C@H]1c2cc(F)ccc2S(=O)(=O)N1c1cccc(OC)c1,"inconclusive: 5.62 µM [inhibitor, single point]"
22,Cc1ccc(-n2nc3c(c2NC(=O)/C=C\c2ccc4c(c2)OCO4)CSC3)cc1,"inconclusive: 10 µM [inhibitor, partial curve]"
23,Cc1cc(=O)[nH]c2sc(C(=O)N3c4ccccc4CC3C)c(N)c12 (stereo not drawn),inactive
